Measurements published in PubChem BioAssay AID2451 (National Center for Advancing Translational Sciences (NCATS), 2010).
The whole screen tested about 290,000 compounds, of which about 2,100 (0.72%) were called active. Inconclusive means that the source gave no clear call. Such entries were picked first, then a sample of the others. The call rests on the fitted dose curve; in most records, active means well fitted inhibition curve with a large enough effect; inconclusive means small, poorly fitted or top-dose-only effect, or effect the other way; inactive means flat fitted curve, though single readings scatter. A potency beside an inconclusive call is a rough fit, not a confirmed value.

Biological target: Fructose-bisphosphate aldolase (Giardia intestinalis (strain ATCC 50803 / WB clone C6)) (UniProt A8B2U2)
Assay: qHTS Assay for Inhibitors of Fructose-1,6-bisphosphate Aldolase from Giardia Lamblia; further: nearly all actives have a fitted effect of over 55% in size
Details: purified Giardia FBPA; activity, negative = inhibition: at 59.6 µM (top of the series) unless noted
Procedure, shortened: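 40 nM FBPA preincubated 10 min at RT with compound (up to 57.5 uM final), then substrate plus GAPDH/TPI/NAD/arsenate coupling and diaphorase/resazurin added. Fluorescence read after 20 min at RT, 525/598 nm.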
On the % scale 0 is the no-effect control and ±100 the full control effect; potency means the concentration at half of the fitted maximal effect; tags describe the fitted curve by direction and shape.

UniProt A8B2U2, sequence (A8B2U2 whole entry, looked up): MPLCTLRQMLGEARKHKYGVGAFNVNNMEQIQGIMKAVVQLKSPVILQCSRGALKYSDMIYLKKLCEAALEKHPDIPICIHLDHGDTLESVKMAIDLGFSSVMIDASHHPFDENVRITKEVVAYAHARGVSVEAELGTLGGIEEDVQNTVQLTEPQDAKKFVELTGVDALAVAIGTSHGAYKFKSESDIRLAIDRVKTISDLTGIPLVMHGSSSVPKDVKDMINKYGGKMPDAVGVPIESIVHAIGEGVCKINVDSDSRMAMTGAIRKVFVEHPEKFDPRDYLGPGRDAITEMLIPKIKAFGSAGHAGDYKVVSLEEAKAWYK

| Structure (SMILES) | Potency | activity, negative = inhibition |
| --- | --- | --- |
| CCOC(=O)c1c(C)[nH]c(=S)c(C#N)c1-c1ccccc1 | inconclusive: 22.3 µM [activator, partial curve, poor fit] | – |
| Oc1ccc2ccccc2c1CNc1cnc2ccccc2c1 | inconclusive: 17.7 µM [inhibitor, single point] | – |
| O=C1Nc2ccccc2N=C(c2ccccc2)C1Br (centres undefined) | inconclusive: 17.7 µM [inhibitor, partial curve] | – |
| C=CCNC(=O)CN1CCN(Cc2ccc3c(c2)OCO3)CC1 | inconclusive: 39.8 µM [inhibitor, single point] | – |
| N#Cc1cc(-c2ccccc2)oc1/N=C/c1ccccc1O | – | inactive: -4.93% |
| O=c1c2ccccc2nc(-c2ccccc2)n1Cc1ccccc1 | – | inactive: 7.04% |
| Cc1c(CN2CCCCC2)c(O)n(CCO)c(=O)c1C#N | inconclusive: 11.2 µM [inhibitor, partial curve] | – |
| CNc1ccc(Br)cc(C(=O)/C=C/c2cccc(Cl)c2Cl)c1=O | inconclusive: 6.29 µM [inhibitor, single point] | – |
| Cc1ccc(-c2nnc(COC(=O)c3cccs3)o2)cc1 | – | inactive: 6.32% |
| Cc1nnc(NC(=O)CSc2nnc(C)c(=O)n2N)s1 | inconclusive: 25.1 µM [inhibitor, partial curve] | – |
| COc1ccccc1NC(=O)COc1ccc(/C=N/NC(=O)CSCc2ccc(Cl)cc2)cc1 | – | inactive: 4.76% |
| O=C(CNC(=O)c1cccs1)N=Nc1c(O)[nH]c2ccc([N+](=O)[O-])cc12 | inconclusive: 31.6 µM [inhibitor, single point] | – |
| OCCNCCOc1ccccc1-c1ccccc1 | inconclusive: 17.7 µM [inhibitor, single point] | – |
| CC1CCN(S(=O)(=O)c2ccc(F)c(C(=O)O)c2)CC1 | inconclusive: 17.7 µM [activator, single point] | – |
| CCOC(=O)c1cccc(NC(=O)CNS(=O)(=O)c2cccs2)c1 | inconclusive: 25.1 µM [activator, single point] | – |
| COc1cc(CC(=O)NCc2ccc3c(c2)OCO3)cc(OC)c1OC | – | inactive: 10.1% |
| COc1cccc(C(=O)NCCC2=CCCCC2)c1OC | – | inactive: -1.84% |
| COC(=O)CCCC1=CC2=C(c3ccccc3)C(=O)C(C)(OC(=O)C3CCCC3)C(=O)C2=CN1CCc1c[nH]c2ccccc12 (centres undefined) | inconclusive: 2.51 µM [inhibitor, full curve] | – |
| NC(=O)CNc1n[nH]c(=S)[nH]c1=O | inconclusive: 19.9 µM [inhibitor, single point] | – |
| CCN1CCC[C@H]1CNC(=O)c1c(O)c(Cl)cc(Cl)c1OC | inconclusive: 44.6 µM [inhibitor, single point] | – |
| C#CCOCCOCCOCCNc1nc(N2CCN(C(=O)Cn3cc(CCCN=C(N)N)nn3)CC2)nc(N2CCN(C(=O)Cn3cc(CCCN=C(N)N)nn3)CC2)n1 | inconclusive: 15.8 µM [activator, single point] | – |
| NCCC[C@@H](CC(=O)N[C@@H]1CCNC[C@H]1C(=O)N[C@H](CC(=O)N[C@@H](CCC(=O)O)CC(=O)O)Cc1ccccc1)NC(=O)C[C@H](CO)NC(=O)[C@@H]1CCCC[C@H]1N | inconclusive: 15.8 µM [inhibitor, single point] | – |
| CC1(C)Cc2nc3sc4c(SCC(=O)NCc5ccccc5)ncnc4c3cc2CO1 | – | inactive: 3.01% |

| Structure (SMILES) | Potency | activity, negative = inhibition |
| --- | --- | --- |
| COCc1cc(C)nc(SCC(=O)c2ccc(O)c(O)c2)c1C#N | inconclusive: 4.46 µM [inhibitor, partial curve] | – |
| CC1CCc2[nH]nc(C(=O)O)c2C1 (centres undefined) | inconclusive: 11.2 µM [inhibitor, partial curve, poor fit] | – |
| Cc1ccc(NC(=O)CN(C)CC(=O)Nc2ccc(F)c(Cl)c2)cc1 | inconclusive: 17.7 µM [inhibitor, single point] | – |
| COc1ccc(C(CC(=O)N2CCCC(C)C2)c2c(OC)cc(OC)c3ccc(=O)oc23)cc1 (centres undefined) | inactive | – |
| CCCc1nc2nc(C)c(NS(=O)(=O)c3ccc(F)cc3)c(=O)n2[nH]1 | inconclusive: 28.2 µM [inhibitor, partial curve] | – |
| COc1ccc(-c2nn3c(-c4ccco4)nnc3s2)cc1OC | – | inactive: 4.22% |
| COCc1n[nH]c(=S)n1-c1ccccc1 | inconclusive: 9.98 µM [inhibitor, partial curve] | – |
| Cc1cc(C)nc(-n2nc(C)c3c(=O)[nH]c(C(F)(F)F)nc32)n1 | inconclusive: 15.8 µM [inhibitor, partial curve] | – |
| O=C(c1ccco1)N(Cc1cccc([N+](=O)[O-])c1)c1ccc(Br)cc1 | inconclusive: 19.9 µM [inhibitor, partial curve] | – |
| O=C(O)c1ccc(-n2nc(C(F)(F)F)c3c2-c2ccoc2CC3)cc1 | inconclusive: 15.8 µM [activator, single point] | – |
| COc1ccc(OC)c(NC(=S)Nc2ccccc2)c1 | inconclusive: 39.8 µM [inhibitor, single point] | – |
| COc1ccccc1NS(=O)(=O)c1cccs1 | inconclusive: 15.8 µM [inhibitor, single point] | – |
| Cc1cccc(CN2CCN(Cc3ccco3)CC2)c1 | inconclusive: 28.2 µM [inhibitor, partial curve] | – |
| OC(CNCCc1ccc(Cl)cc1Cl)COc1ccccc1 (centres undefined) | inconclusive: 12.6 µM [inhibitor, partial curve] | – |
| COc1ccc(CNC(=O)CNC(C)c2ccc(F)cc2)cc1 (centres undefined) | inconclusive: 15.8 µM [inhibitor, partial curve] | – |
| COc1ccc(N2C(S)=C(C#N)C(=O)NC2c2ccc(OC)c(OC)c2)cc1 (centres undefined) | inconclusive: 15.8 µM [inhibitor, partial curve] | – |
| O=c1cc(C(F)(F)F)nc(-n2[nH]c3c(c2=O)CCCC3)[nH]1 | inconclusive: 44.6 µM [inhibitor, single point] | – |
| CC(O)CNCCCOc1cccc(C(F)(F)F)c1 (centres undefined) | inconclusive: 19.9 µM [inhibitor, partial curve] | – |
| CN(C)c1cc(NC(=O)CN2CCCC2)c2ccccc2n1 | inconclusive: 11.2 µM [inhibitor, partial curve] | – |
| Cc1sc2nc(CN3CCN(c4ccc(O)cc4)CC3)[nH]c(=O)c2c1C | inconclusive: 14.1 µM [inhibitor, partial curve] | – |
| CCN1CCN(CCOc2ccc(Cl)cc2)CC1 | inconclusive: 7.06 µM [inhibitor, single point] | – |
| O=C(O)c1cccnc1C(=O)O | active: 0.63 µM | – |
| Cc1cc(NC(=O)COc2cccc3cccnc23)no1 | inconclusive: 15.8 µM [inhibitor, partial curve] | – |

| Structure (SMILES) | Potency | activity, negative = inhibition |
| --- | --- | --- |
| Cc1cc(C)c(C(=O)N2CCCC(Nc3ccc(C)c(C)c3)C2)o1 (centres undefined) | inconclusive: 31.6 µM [inhibitor, partial curve] | – |
| CCOC(=O)c1c(-c2cccs2)csc1N | inconclusive: 4.46 µM [inhibitor, single point] | – |
| Cc1ccc(Nc2cc(C)c(O)c(C)c2)cc1 | inconclusive: 20 µM [inhibitor, partial curve] | – |
| C=CCNC(=S)Nc1cccc([N+](=O)[O-])c1 | inconclusive: 12.6 µM [inhibitor, partial curve] | – |
| O=C(NCc1ccc2c(c1)OCO2)c1cc2ccccc2oc1=O | – | inactive: 1.88% |
| O=C(Cc1ccccc1)n1nc(-c2ccco2)nc1SCc1ccccc1 | inconclusive: 17.7 µM [inhibitor, single point] | – |
| COc1cccc(C(=O)N2CCN(Cc3ccccc3C(F)(F)F)CC2)c1 | inconclusive: 44.6 µM [inhibitor, single point] | – |
| COc1cc(SSc2cc(OC)cc([N+](=O)[O-])c2N)c(N)c([N+](=O)[O-])c1 | inconclusive: 2.51 µM [inhibitor, full curve] | – |
| CC(C(=O)OCc1nnc(-c2ccccc2)o1)N1C(=O)c2ccccc2C1=O (centres undefined) | – | inactive: 9.86% |
| C=CCn1c(=O)c2ccccc2n2c(SCC(=O)Nc3sc(C)c(CC)c3C(=O)OCC)nnc12 | – | inactive: -0.572% |
| Cc1ccc(NS(=O)(=O)c2ccc(NC(=O)[C@@H]3CCCC[C@@H]3C(=O)O)cc2)c(C)c1 | inconclusive: 17.7 µM [activator, partial curve] | – |
| Cc1cc(C)c(S(=O)(=O)/N=C2\C=C(NS(=O)(=O)c3ccccc3)C(=O)c3ccccc32)c(C)c1 | inconclusive: 15.8 µM [inhibitor, partial curve] | – |
| CC(=O)CSc1nc2ccc(Nc3nc(N4CCOCC4)nc(N4CCOCC4)n3)cc2s1 | – | inactive: -8.2% |
| C=CCSc1nnc(NC(=O)CSc2ccccn2)s1 | inconclusive: 25.1 µM [inhibitor, partial curve] | – |
| Cc1cc(C)c2c(N)c(C(=O)NC3CCCC3)sc2n1 | – | inactive: -13.6% |
| CCOc1cc(CNc2ccccc2SC)ccc1O | inconclusive: 17.7 µM [inhibitor, single point] | – |
| Cc1nnc(NC(=O)CN2CCN(Cc3ccc(F)cc3Cl)CC2)s1 | active: 3.16 µM | – |
| Cc1ccc(S(=O)(=O)N2CCN(Cc3ccccn3)CC2)cc1 | inconclusive: 19.9 µM [inhibitor, partial curve] | – |
| NC(=S)N/N=C/c1ccccc1[N+](=O)[O-] | inconclusive: 3.97 µM [inhibitor, full curve] | – |
| CCOC(=O)c1ccc(N2C(=O)CC(N3CCC(C(N)=O)(N4CCCCC4)CC3)C2=O)cc1 (centres undefined) | – | inactive: 0.433% |
| Cc1cccc(N2CCN(C(=O)c3ccncc3)CC2)c1C | – | inactive: 9.43% |
| O=C(c1ccccc1Sc1ccc([N+](=O)[O-])cc1Cl)N1CCOCC1 | inconclusive: 17.7 µM [inhibitor, partial curve] | – |
| Cc1cccc2c1[nH]c1nc(N/N=C\c3ccco3)nnc12 | – | inactive: -1.13% |
